# More than one record can exist for a structure, and the calls need not agree.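 Single-dose data. Exposure time 48 hours. Values below 10 considered active.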 Not every entry of the source has a single result; some have several. The other results are left out here. An entry can have further records. For part of these data: The screen tested this drug many times, at its own concentration, as given; one value stands for one run. Brackets with × give the number of equal values in this list. Some values that stand alone complete this part of the results. Activity calls are given as the source filed them.
# System: MCF7 breast
# Test: NCI-60 one-dose screen, 48 h (100 = growth as untreated, 0 = no growth, -100 = all killed)
# Details: 0.25 µM
smiles,measurement,setting,value
COc1cccc2c1C(=O)c1c(O)c3c(c(O)c1C2=O)C[C@@](O)(C(=O)CO)C[C@@H]3OC1CC(N)C(O)C(C)O1 (stereo not given in full),growth,runs of 2006,active: 7.42%
same,growth,runs of 2007,"inactive: 18.2, 16.7, 13.5, 31.9, 14.1 (2×), 26.7, 24.6, 20.4 (2×), 17.6 (2×), 22.1 (2×), 13.4, 20.1, 18.3, 24.4, 21.7, 16.1, 23.2, 21.8, 23.1, 15.4, 17.8, 27.6, 16.8, 17.4, 15.7, 39.2, 40.7, 19.9, 22.6, 14, 15, 17.3, 16.6, 25.5% and active: 6.54%, 9.77%, -12.1%"
same,growth,runs of 2008,"inactive: 19.6 (3×), 19, 12, 23.5 (2×), 20.6, 21.8 (2×), 21.7, 24, 15.7 (2×), 15.8, 17.4, 10.5, 13.3, 11.2, 15.1, 16.7, 15.6, 90.3, 18.8, 10.3, 10.6, 12.9 (2×), 13.6, 15.9 (2×), 22, 22.9% and active: 4.97, 8.37, 4.9, 9.91, -3.16, 7.65, -0.492, 6.09, 6.2, 6.46, 8.26, 9.66, 8.79, 8.01, 6.9, 7.46%"
same,growth,runs of 2009,"inactive: 17.4, 12.5, 14.5, 27.5, 23.5, 16.1, 19.6, 21.7, 17.8, 19.7, 15.8, 19.2, 16 (2×), 14.7, 15.7, 13.5 (2×), 15.6, 14.6, 19, 11.2, 28.1, 16.9 (2×), 20.6, 17.5, 15.4, 19.9, 13.6, 11.8, 15.2 (2×), 15.5, 10.2, 14, 15.3, 22.3 (2×), 19.5, 13.1, 23.9, 25.8 (2×), 13.8 (2×), 33.7, 28, 26.2, 23.3, 22.5, 13% and active: 7.75, 7.02, -7.99, -3.91, 9.55, 9.7%"
same,growth,runs of 2010,"inactive: 20, 23.3 (3×), 30.4, 23.6, 22.6 (2×), 20.7, 23.5, 21.3, 25.5, 20.2 (2×), 22.7, 22.5 (2×), 19.4 (2×), 20.4 (2×), 23.7 (2×), 17.5, 19.7, 17.3, 13.4, 14.9, 15.2, 16, 27.1, 33.5, 17.8, 30.2, 23.4, 26.9, 24, 24.3, 25, 19.2, 23.2 (2×), 23, 21.7, 28.1, 26.3, 21.9, 21%"
same,growth,runs of 2011,"inactive: 19.9, 24.6 (2×), 26.3, 22.5 (3×), 25.2, 23.1, 29.5, 26.4 (2×), 23.4 (2×), 23, 27.6, 32.4 (2×), 10.3, 29.8, 30.6, 18.7, 24.8, 24, 29.2, 37.1, 23.9, 24.5, 19.3, 12.7, 22.1 (2×), 24.2, 16.1, 15.8, 16.8, 17, 14.9, 16.2, 19.4 (2×), 14.2, 14.5, 21.2, 17.6 (2×), 16.6, 14.6, 28.8, 22.7, 22.6, 23.7%"
same,growth,runs of 2012,"inactive: 25.5, 18, 19.2, 17.8, 21.3, 19.7 (2×), 25.1 (2×), 23.2, 25.9, 27.2 (3×), 15, 18.2, 16.9, 20.9, 11.5, 18.1, 24.2, 20.1 (2×), 19.5, 22.6, 25.6 (2×), 28.9, 27.6, 30.2, 25.8, 24.8, 23.3, 22.3, 22, 15.5, 21 (2×), 24.4, 30.9, 26.4, 24, 33.8, 30.5 (2×), 24.6 (2×), 26.2 (2×), 26.3, 27.5, 29.3, 26.7, 28.7, 27, 23.6, 20, 20.3, 20.4, 21.9% and active: 2.74%"
same,growth,runs of 2013,"inactive: 23.2, 19.8 (2×), 23, 24, 24.4, 27.5, 14.5, 21.7 (2×), 22.2, 20.5, 23.6 (2×), 21.8, 20.6 (2×), 24.3, 30.6, 25.7, 27.6 (2×), 25.6, 28.8 (2×), 26 (3×), 23.1, 25.1 (2×), 23.5, 28.5, 18.8, 25.5 (2×), 23.9 (3×), 27.1, 26.7, 29.6, 22.3, 25.2 (2×), 22.5 (2×), 24.6, 28, 26.4, 31.3, 30.7, 29.2, 19, 22.9, 19.4, 19.3, 18.7, 20.3, 21.2, 24.8, 17.6, 13.6, 17.4% and active: 8.47%"
same,growth,runs of 2014,"inactive: 17.6, 20.9, 16.2 (3×), 14.9 (2×), 15.9, 23.3, 15.8 (2×), 13.2, 15.4 (3×), 12.1 (2×), 19.2, 24.6, 35, 17.3, 20 (2×), 16.9, 18.2, 16.6 (2×), 16.8, 16.5 (2×), 17.1, 18.8, 18, 20.6, 19.7, 19.6, 15.3 (2×), 14.3 (2×), 16, 13.5, 21.8, 20.3, 15.6, 15.2 (2×), 15, 10.6 (2×), 11, 11.7 (2×), 13.6, 13 (2×), 12.9, 11.9, 10.2, 13.7, 11.8, 20.5, 23.9, 14.2, 19.8% and active: 9.38, 9.44, 8.74, 8.1, 7.95, 7.35, 9.5, 7.38, 9.29%"
same,growth,runs of 2015,"inactive: 17.3, 18.7 (4×), 23.4 (2×), 18, 17.8 (2×), 13.5, 15.7 (2×), 22.1 (2×), 22.2, 14.1, 18.1 (2×), 15.1, 13.8 (2×), 10, 16.8, 23.3, 11.6, 16.9, 22.6 (2×), 15.2 (2×), 21 (2×), 17.5 (2×), 19.5 (2×), 23.7, 20.1 (2×), 19, 21.8 (2×), 26, 21.2, 23.2, 19.3, 16.7, 19.4, 26.1 (2×), 15.5, 19.8 (2×), 17.1, 20.5, 25.8, 26.9, 23.9, 23.6, 18.8, 17, 15.9, 19.2, 20.7, 26.4, 25.7, 25.3%"
same,growth,runs of 2016,"inactive: 20.5 (3×), 17.1, 19.2 (3×), 21.7 (2×), 23, 20 (2×), 23.2 (3×), 19.4, 22.2 (3×), 24.5, 25.6, 18.7, 21.9 (5×), 19.6 (2×), 20.1, 19 (2×), 19.7 (2×), 20.2, 21.2, 22.6 (3×), 16.1, 23.8, 18 (2×), 16.2, 22.5, 17, 19.9, 21, 26.9, 20.7, 24, 23.3 (2×), 24.6, 22 (2×), 19.5 (2×), 19.3 (2×), 19.8, 17.4 (2×), 17.8, 18.3, 20.6, 29.1, 26.8, 23.6 (2×), 27.5, 28.5%"
same,growth,runs of 2017,"inactive: 17.1 (2×), 16.5 (4×), 17.5 (2×), 17 (2×), 17.6, 19.7 (2×), 21, 13.4, 20.1 (3×), 20.5 (3×), 19.5, 18.8 (3×), 23.8 (2×), 25.9, 15.7, 18.7 (2×), 21.8, 22.2, 20.6 (2×), 20.2 (2×), 16.7, 23.6 (2×), 25.5, 19.4 (2×), 22.7, 18.3 (2×), 19, 21.3 (2×), 16.9, 18.1, 14.5, 20.3, 18.2, 19.9, 22.5, 13.7, 15.3, 14, 17.8, 24.2, 19.8, 23.5, 22.3, 20.7 (2×), 21.2, 16%"
same,growth,runs of 2018,"inactive: 20.1 (4×), 19.2, 19.9 (2×), 17.3 (2×), 15.8 (2×), 16.2, 15.4, 20.4, 18.2 (2×), 19.6, 22.9, 24.2, 20.2 (2×), 21.8 (2×), 19.4 (3×), 23.9, 21, 17.5, 20.5 (2×), 27, 25.7, 18.1 (2×), 20.7, 19.3, 22.5, 21.3 (2×), 22.7, 20.6, 23, 22% (2×) and active: 9.82%"
same,growth,runs of 2019,"active: 8.41%, 8.67%, 9.78% and inactive: 14 (2×), 14.5, 13.8, 13.6 (2×), 20.5, 22.3, 18.1, 22.6, 22.2, 20.6, 15.3 (2×), 14.1 (2×), 18.2, 19.4, 15.8, 16.8, 16.7, 18.8, 14.9, 21.3, 19.9, 17.3, 16.1, 17.8, 17.6, 20.3, 22.5, 15.4, 17.4, 15.7, 20.2, 20.7, 21, 12.7, 12.9%"
same,growth,runs of 2020,"inactive: 15.1, 15, 21.7, 19.4, 17.4 (2×), 15.9 (3×), 15.4, 20.9 (2×), 17.6, 19.3, 20.5, 18.1, 19.7, 17.1, 22.1, 13.1, 25.3, 31.2%"

# — PubChem BioAssay (NCI)
